This is an account of results in PMC9911399, “Two distinct binding modes provide the RNA-binding protein RbFox with extraordinary sequence specificity”.

Where a chain is given by its changes, count along the chain named. This is one part of the list.

T1: RBFOX1 RRM (Homo sapiens, UniProt Q9NWB1 109-208)
T1 sequence: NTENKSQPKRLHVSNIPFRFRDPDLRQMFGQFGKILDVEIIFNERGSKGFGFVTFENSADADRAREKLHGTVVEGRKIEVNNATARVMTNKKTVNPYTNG

B1: GCUACUC (DNA:RNA)
RNA: GGGAGACCGGAAUUCAGAUUGUCCGCUACUCUUAAAUCCCGUCGUAGCCACCA
DNA 1: CAATCTGAATTCCGGTCTCCC
DNA 2: TGGTGGCTACGACGGGATT
B2: AAUGUGC (DNA:RNA)
RNA: B1 RNA with G25A, C26A, A28G, C29U, U30G
DNA 1: CAATCTGAATTCCGGTCTCCC
DNA 2: TGGTGGCTACGACGGGATT
B3: AGAGCCG (DNA:RNA)
RNA: B1 RNA with G25A, C26G, U27A, A28G, U30C, C31G
DNA 1: CAATCTGAATTCCGGTCTCCC
DNA 2: TGGTGGCTACGACGGGATT
B4: UAUUUAG (DNA:RNA)
RNA: B1 RNA with G25U, C26A, A28U, C29U, U30A, C31G
DNA 1: CAATCTGAATTCCGGTCTCCC
DNA 2: TGGTGGCTACGACGGGATT
B5: AUAAGGU (DNA:RNA)
RNA: B1 RNA with G25A, C26U, U27A, C29G, U30G, C31U
DNA 1: CAATCTGAATTCCGGTCTCCC
DNA 2: TGGTGGCTACGACGGGATT
B6: GGCCGCU (DNA:RNA)
RNA: B1 RNA with C26G, U27C, A28C, C29G, U30C, C31U
DNA 1: CAATCTGAATTCCGGTCTCCC
DNA 2: TGGTGGCTACGACGGGATT
B7: GCGGGGG (DNA:RNA)
RNA: B1 RNA with U27G, A28G, C29G, U30G, C31G
DNA 1: CAATCTGAATTCCGGTCTCCC
DNA 2: TGGTGGCTACGACGGGATT
B8: ACAGGUG (DNA:RNA)
RNA: B1 RNA with G25A, U27A, A28G, C29G, C31G
DNA 1: CAATCTGAATTCCGGTCTCCC
DNA 2: TGGTGGCTACGACGGGATT
B9: UAGGCCA (DNA:RNA)
RNA: B1 RNA with G25U, C26A, U27G, A28G, U30C, C31A
DNA 1: CAATCTGAATTCCGGTCTCCC
DNA 2: TGGTGGCTACGACGGGATT
B10: CACGGCU (DNA:RNA)
RNA: GGGAGACCGGAAUUCAGAUUGUCCCACGGCUUUAAAUCCCGUCGUAGCCACCA
DNA 1: CAATCTGAATTCCGGTCTCCC
DNA 2: TGGTGGCTACGACGGGATT
B11: CUAGUGU (DNA:RNA)
RNA: B10 RNA with A26U, C27A, G29U, C30G
DNA 1: CAATCTGAATTCCGGTCTCCC
DNA 2: TGGTGGCTACGACGGGATT
B12: CGCUUAG (DNA:RNA)
RNA: B10 RNA with A26G, G28U, G29U, C30A, U31G
DNA 1: CAATCTGAATTCCGGTCTCCC
DNA 2: TGGTGGCTACGACGGGATT
B13: AGGGUCG (DNA:RNA)
RNA: B10 RNA with C25A, A26G, C27G, G29U, U31G
DNA 1: CAATCTGAATTCCGGTCTCCC
DNA 2: TGGTGGCTACGACGGGATT
B14: UUGAUCG (DNA:RNA)
RNA: B10 RNA with C25U, A26U, C27G, G28A, G29U, U31G
DNA 1: CAATCTGAATTCCGGTCTCCC
DNA 2: TGGTGGCTACGACGGGATT
B15: CAGCGCA (DNA:RNA)
RNA: B10 RNA with C27G, G28C, U31A
DNA 1: CAATCTGAATTCCGGTCTCCC
DNA 2: TGGTGGCTACGACGGGATT
B16: AAGAAGU (DNA:RNA)
RNA: B10 RNA with C25A, C27G, G28A, G29A, C30G
DNA 1: CAATCTGAATTCCGGTCTCCC
DNA 2: TGGTGGCTACGACGGGATT
B17: AAUAUGA (DNA:RNA)
RNA: B1 RNA with G25A, C26A, C29U, U30G, C31A
DNA 1: CAATCTGAATTCCGGTCTCCC
DNA 2: TGGTGGCTACGACGGGATT
B18: CUCUCUA (DNA:RNA)
RNA: B10 RNA with A26U, G28U, G29C, C30U, U31A
DNA 1: CAATCTGAATTCCGGTCTCCC
DNA 2: TGGTGGCTACGACGGGATT
B19: GGCACUU (DNA:RNA)
RNA: B1 RNA with C26G, U27C, C31U
DNA 1: CAATCTGAATTCCGGTCTCCC
DNA 2: TGGTGGCTACGACGGGATT
B20: GAGCAUA (DNA:RNA)
RNA: B1 RNA with C26A, U27G, A28C, C29A, C31A
DNA 1: CAATCTGAATTCCGGTCTCCC
DNA 2: TGGTGGCTACGACGGGATT
B21: UAGGAUC (DNA:RNA)
RNA: B10 RNA with C25U, C27G, G29A, C30U, U31C
DNA 1: CAATCTGAATTCCGGTCTCCC
DNA 2: TGGTGGCTACGACGGGATT
B22: AGUCCAG (DNA:RNA)
RNA: B1 RNA with G25A, C26G, A28C, U30A, C31G
DNA 1: CAATCTGAATTCCGGTCTCCC
DNA 2: TGGTGGCTACGACGGGATT
B23: GAUAAGG (DNA:RNA)
RNA: B1 RNA with C26A, C29A, U30G, C31G
DNA 1: CAATCTGAATTCCGGTCTCCC
DNA 2: TGGTGGCTACGACGGGATT
B24: AGGACAC (DNA:RNA)
RNA: B1 RNA with G25A, C26G, U27G, U30A
DNA 1: CAATCTGAATTCCGGTCTCCC
DNA 2: TGGTGGCTACGACGGGATT
B25: AUCGUUU (DNA:RNA)
RNA: B10 RNA with C25A, A26U, G29U, C30U
DNA 1: CAATCTGAATTCCGGTCTCCC
DNA 2: TGGTGGCTACGACGGGATT
B26: GCACUCC (DNA:RNA)
RNA: B1 RNA with U27A, A28C, C29U, U30C
DNA 1: CAATCTGAATTCCGGTCTCCC
DNA 2: TGGTGGCTACGACGGGATT
B27: UUUCGUA (DNA:RNA)
RNA: B1 RNA with G25U, C26U, A28C, C29G, C31A
DNA 1: CAATCTGAATTCCGGTCTCCC
DNA 2: TGGTGGCTACGACGGGATT
B28: AGCAAGC (DNA:RNA)
RNA: B1 RNA with G25A, C26G, U27C, C29A, U30G
DNA 1: CAATCTGAATTCCGGTCTCCC
DNA 2: TGGTGGCTACGACGGGATT
B29: GGCCGUA (DNA:RNA)
RNA: B10 RNA with C25G, A26G, G28C, C30U, U31A
DNA 1: CAATCTGAATTCCGGTCTCCC
DNA 2: TGGTGGCTACGACGGGATT
B30: AGUCCCU (DNA:RNA)
RNA: B10 RNA with C25A, A26G, C27U, G28C, G29C
DNA 1: CAATCTGAATTCCGGTCTCCC
DNA 2: TGGTGGCTACGACGGGATT
B31: CCAAUCA (DNA:RNA)
RNA: B10 RNA with A26C, C27A, G28A, G29U, U31A
DNA 1: CAATCTGAATTCCGGTCTCCC
DNA 2: TGGTGGCTACGACGGGATT

For the assay, the target named is T1, RBFOX1 RRM. In words: EMSA; HiTS-Eq, 1 nM pool, 10 min; buffer printed only for the single-RNA assays: 10 mM Tris pH 7.5, 150 mM NaCl, 3.4 mM EDTA, 0.001% NP-40, 30 C. The conditions noted are these: tags: His6 N-terminal (pET28a); label: 5' 32P. In a few lines: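 Purified RbFox RRM, wild type or mutant, was incubated for 10 min in 50 µL with 1 nM of a 5′-radiolabelled RNA pool carrying 7 randomized nucleotides, whose flanks were annealed to DNA oligonucleotides, over a series of increasing protein concentrations. Unbound RNA was resolved on 8% native PAGE, cut out, reverse-transcribed, barcoded by PCR and sequenced on an Illumina HiSeq 2500. Relative association constants were derived from changes in read counts for each RNA species versus the control reaction and normalised to the cognate motif.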
(Mobility shift assays separate free from complexed probe on a gel.)
Turning to B1, the binding signal was 0.0175 KA relative to UGCAUGU. The figure for B2 is 0.0173 KA relative to UGCAUGU. The figure for B3 is 0.00628 KA relative to UGCAUGU. The figure for B4 is 0.0153 KA relative to UGCAUGU; for B5 it is 0.00979 KA relative to UGCAUGU; for B6 it is 0.0123 KA relative to UGCAUGU. As to B7, the binding signal was 0.0269 KA relative to UGCAUGU. The figure for B8 is 0.00968 KA relative to UGCAUGU. For the molecule B9, the binding signal was 0.00813 KA relative to UGCAUGU. Consider B10, for which the binding signal is 0.00764 KA relative to UGCAUGU. Then B11, with 0.0159 KA relative to UGCAUGU. Then B12, with 0.00951 KA relative to UGCAUGU. As for B13, the binding signal was 0.0203 KA relative to UGCAUGU. Turning to B14, the binding signal is 0.0284 KA relative to UGCAUGU.

For B15, the binding signal is 0.00751 KA relative to UGCAUGU. As for B16, the binding signal was 0.00241 KA relative to UGCAUGU. The figure for B17 is 0.00647 KA relative to UGCAUGU; for B18 it is 0.000969 KA relative to UGCAUGU; for B19 it is 0.00825 KA relative to UGCAUGU. As to B20, the binding signal was 0.012 KA relative to UGCAUGU.

B21: the binding signal was 0.00767 KA relative to UGCAUGU. Then B22, with 0.00711 KA relative to UGCAUGU. The figure for B23 is 0.0074 KA relative to UGCAUGU.

In the case of B24, the binding signal is 0.0157 KA relative to UGCAUGU. Regarding B25, the binding signal is 0.00427 KA relative to UGCAUGU. In the case of B26, the binding signal was 0.00634 KA relative to UGCAUGU. For B27, the binding signal was 0.0114 KA relative to UGCAUGU. On to B28, for which the binding signal is 0.0136 KA relative to UGCAUGU. Then B29, with 0.00981 KA relative to UGCAUGU; and B30, with 0.00574 KA relative to UGCAUGU. Consider B31, for which the binding signal was 0.000201 KA relative to UGCAUGU.
